Patent US11618753B2 (priority 2018, dated 2023)

Tested on: MLKL phosphorylation, HT29-L23 human colorectal adenocarcinoma cells
Assay: cells
Conditions: read-out: pMLKL HCS Cell Assay (IC50, uM)

Compound	IC50 [µM]
CCc1ccc(-c2cc(C(F)(F)F)c3c(N)ncnn23)cc1C(=O)N[C@@H]1CN(C(=O)C(O)(CC)C(F)(F)F)C[C@@H]1F (stereo partly drawn) [Example 967, 5-[4-amino-5-(trifluoromethyl)pyrrolo[2,1-f][1,2,4]triazin-7-yl]-2-ethyl-N-[(3R,4S)-4-fluoro-1-[2-hydroxy-2-(trifluoromethyl)butanoyl]pyrrolidin-3-yl]benzamide]	0.016
CCc1ccc(-c2cc(C(F)(F)F)c3c(N)ncnn23)cc1C(=O)N[C@@H]1CN(C(=O)C2CC(F)(F)C2)C[C@@H]1F [Example 968, 5-[4-amino-5-(trifluoromethyl)pyrrolo[2,1-f][1,2,4]triazin-7-yl]-N-[(3R,4S)-1-(3,3-difluorocyclobutanecarbonyl)-4-fluoropyrrolidin-3-yl]-2-ethylbenzamide]	0.0041
CCc1ccc(-c2cc(C(F)(F)F)c3c(N)ncnn23)cc1C(=O)N[C@@H]1CN(C(=O)C2CC(F)C2)C[C@@H]1F (stereo partly drawn) [Example 969, 5-[4-amino-5-(trifluoromethyl)pyrrolo[2,1-f][1,2,4]triazin-7-yl]-2-ethyl-N-[(3R,4S)-4-fluoro-1-(3-fluorocyclobutanecarbonyl)pyrrolidin-3-yl]benzamide]	0.0082
CCc1ccc(-c2cc(C(F)(F)F)c3c(N)ncnn23)cc1C(=O)N[C@@H]1CN(C(=O)C2(F)CC2)C[C@@H]1F [Example 970, 5-[4-amino-5-(trifluoromethyl)pyrrolo[2,1-f][1,2,4]triazin-7-yl]-2-ethyl-N-[(3R,4S)-4-fluoro-1-(1-fluorocyclopropanecarbonyl)pyrrolidin-3-yl]benzamide]	0.0093
CCc1ccc(-c2cc(C(F)(F)F)c3c(N)ncnn23)cc1C(=O)N[C@@H]1CN(C(=O)CC(C)C(F)(F)F)C[C@@H]1F (stereo partly drawn) [Example 971, 5-[4-amino-5-(trifluoromethyl)pyrrolo[2,1-f][1,2,4]triazin-7-yl]-2-ethyl-N-[(3R,4S)-4-fluoro-1-(4,4,4-trifluoro-3-methylbutanoyl)pyrrolidin-3-yl]benzamide]	0.0029
CCc1ccc(-c2cc(C(F)(F)F)c3c(N)ncnn23)cc1C(=O)N[C@@H]1CN(C(=O)CC(O)(C(F)(F)F)C(F)(F)F)C[C@@H]1F [Example 972, 5-[4-amino-5-(trifluoromethyl)pyrrolo[2,1-f][1,2,4]triazin-7-yl]-2-ethyl-N-[(3R,4S)-4-fluoro-1-[4,4,4-trifluoro-3-hydroxy-3-(trifluoromethyl)butanoyl]pyrrolidin-3-yl]benzamide]	0.0069
CCc1ccc(-c2cc(C(F)(F)F)c3c(N)ncnn23)cc1C(=O)N[C@@H]1CN(C(=O)C2CCC(F)(F)CC2)C[C@@H]1F [Example 973, 5-[4-amino-5-(trifluoromethyl)pyrrolo[2,1-f][1,2,4]triazin-7-yl]-N-[(3R,4S)-1-(4,4-difluorocyclohexanecarbonyl)-4-fluoropyrrolidin-3-yl]-2-ethylbenzamide]	0.0091
CCc1ccc(-c2cc(C(F)(F)F)c3c(N)ncnn23)cc1C(=O)N[C@@H]1CN(C(=O)C2CCC(F)(F)C2)C[C@@H]1F (stereo partly drawn) [Example 974, 5-[4-amino-5-(trifluoromethyl)pyrrolo[2,1-f][1,2,4]triazin-7-yl]-N-[(3R,4S)-1-(3,3-difluorocyclopentanecarbonyl)-4-fluoropyrrolidin-3-yl]-2-ethylbenzamide]	0.0074
CCc1ccc(-c2cc(C(F)(F)F)c3c(N)ncnn23)cc1C(=O)N[C@@H]1CN(C(=O)CC(C)(O)C(F)(F)F)C[C@@H]1F (stereo partly drawn) [Example 975, 5-[4-amino-5-(trifluoromethyl)pyrrolo[2,1-f][1,2,4]triazin-7-yl]-2-ethyl-N-[(3R,4S)-4-fluoro-1-(4,4,4-trifluoro-3-hydroxy-3-methylbutanoyl)pyrrolidin-3-yl]benzamide]	0.0081
CCc1ccc(-c2cc(C(F)(F)F)c3c(N)ncnn23)cc1C(=O)N[C@@H]1CN(C(=O)[C@@](C)(O)C(F)(F)F)C[C@@H]1F [Example 976, 5-[4-amino-5-(trifluoromethyl)pyrrolo[2,1-f][1,2,4]triazin-7-yl]-2-ethyl-N-[(3R,4S)-4-fluoro-1-[(2R)-3,3,3-trifluoro-2-hydroxy-2-methylpropanoyl]pyrrolidin-3-yl]benzamide]	0.0031
CCc1ccc(-c2cc(C(F)(F)F)c3c(N)ncnn23)cc1C(=O)N[C@@H]1CN(C(=O)C(C)C(F)(F)F)C[C@@H]1F (stereo partly drawn) [Example 977, 5-[4-amino-5-(trifluoromethyl)pyrrolo[2,1-f][1,2,4]triazin-7-yl]-2-ethyl-N-[(3R,4S)-4-fluoro-1-(3,3,3-trifluoro-2-methylpropanoyl)pyrrolidin-3-yl]benzamide]	0.01
CCc1ccc(-c2cc(C(F)(F)F)c3c(N)ncnn23)cc1C(=O)N[C@@H]1CN(C(=O)CC(C)C)C[C@@H]1F [Example 978, 5-[4-amino-5-(trifluoromethyl)pyrrolo[2,1-f][1,2,4]triazin-7-yl]-2-ethyl-N-[(3R,4S)-4-fluoro-1-(3-methylbutanoyl)pyrrolidin-3-yl]benzamide]	0.0058
CCc1ccc(-c2cc(C(F)(F)F)c3c(N)ncnn23)cc1C(=O)N[C@@H]1CN(C(=O)C2CC2(F)F)C[C@@H]1F (stereo partly drawn) [Example 979, 5-[4-amino-5-(trifluoromethyl)pyrrolo[2,1-f][1,2,4]triazin-7-yl]-N-[(3R,4S)-1-(2,2-difluorocyclopropanecarbonyl)-4-fluoropyrrolidin-3-yl]-2-ethylbenzamide]	0.019
CCc1ccc(-c2cc(C(F)(F)F)c3c(N)ncnn23)cc1C(=O)N[C@@H]1CN(C(=O)C(C)(C)O)C[C@@H]1F [Example 980, 5-[4-amino-5-(trifluoromethyl)pyrrolo[2,1-f][1,2,4]triazin-7-yl]-2-ethyl-N-[(3R,4S)-4-fluoro-1-(2-hydroxy-2-methylpropanoyl)pyrrolidin-3-yl]benzamide]	0.033
CCc1ccc(-c2cc(C(F)(F)F)c3c(N)ncnn23)cc1C(=O)N[C@@H]1CN(C(=O)CC(F)(F)F)C[C@@H]1F [Example 981, 5-[4-amino-5-(trifluoromethyl)pyrrolo[2,1-f][1,2,4]triazin-7-yl]-2-ethyl-N-[(3R,4S)-4-fluoro-1-(3,3,3-trifluoropropanoyl)pyrrolidin-3-yl]benzamide]	0.024
CCc1ccc(-c2cc(C(F)(F)F)c3c(N)ncnn23)cc1C(=O)N[C@@H]1CN(C(=O)c2ccccc2F)C[C@@H]1F [Example 982, 5-[4-amino-5-(trifluoromethyl)pyrrolo[2,1-f][1,2,4]triazin-7-yl]-2-ethyl-N-[(3R,4S)-4-fluoro-1-(2-fluorobenzoyl)pyrrolidin-3-yl]benzamide]	0.008
Cc1ccc(-c2cc(C(F)(F)F)c3c(N)ncnn23)cc1C(=O)N[C@@H]1CN(C(=O)C2(F)CC2)C[C@@H]1F [Example 983, 5-[4-amino-5-(trifluoromethyl)pyrrolo[2,1-f][1,2,4]triazin-7-yl]-N-[(3R,4S)-4-fluoro-1-(1-fluorocyclopropanecarbonyl)pyrrolidin-3-yl]-2-methylbenzamide]	0.0022
CCC(O)(C(=O)N1C[C@H](F)[C@H](NC(=O)c2cc(-c3cc(C(F)(F)F)c4c(N)ncnn34)ccc2C)C1)C(F)(F)F (stereo partly drawn) [Example 984, 5-[4-amino-5-(trifluoromethyl)pyrrolo[2,1-f][1,2,4]triazin-7-yl]-N-[(3R,4S)-4-fluoro-1-[2-hydroxy-2-(trifluoromethyl)butanoyl]pyrrolidin-3-yl]-2-methylbenzamide]	0.0044
Cc1ccc(-c2cc(C(F)(F)F)c3c(N)ncnn23)cc1C(=O)N[C@@H]1CN(C(=O)CC(F)(F)F)C[C@@H]1F [Example 985, 5-[4-amino-5-(trifluoromethyl)pyrrolo[2,1-f][1,2,4]triazin-7-yl]-N-[(3R,4S)-4-fluoro-1-(3,3,3-trifluoropropanoyl)pyrrolidin-3-yl]-2-methylbenzamide]	0.0067
Cc1ccc(-c2cc(C(F)(F)F)c3c(N)ncnn23)cc1C(=O)N[C@@H]1CN(C(=O)C2CC(F)(F)C2)C[C@@H]1F [Example 986, 5-[4-amino-5-(trifluoromethyl)pyrrolo[2,1-f][1,2,4]triazin-7-yl]-N-[(3R,4S)-1-(3,3-difluorocyclobutanecarbonyl)-4-fluoropyrrolidin-3-yl]-2-methylbenzamide]	0.0016
Cc1ccc(-c2cc(C(F)(F)F)c3c(N)ncnn23)cc1C(=O)N[C@@H]1CN(C(=O)C(C)(C)O)C[C@@H]1F [Example 988, 5-[4-amino-5-(trifluoromethyl)pyrrolo[2,1-f][1,2,4]triazin-7-yl]-N-[(3R,4S)-4-fluoro-1-(2-hydroxy-2-methylpropanoyl)pyrrolidin-3-yl]-2-methylbenzamide]	0.018
Cc1ccc(-c2cc(C(F)(F)F)c3c(N)ncnn23)cc1C(=O)N[C@@H]1CN(C(=O)C2CCC(F)(F)C2)C[C@@H]1F (stereo partly drawn) [Example 989, 5-[4-amino-5-(trifluoromethyl)pyrrolo[2,1-f][1,2,4]triazin-7-yl]-N-[(3R,4S)-1-(3,3-difluorocyclopentanecarbonyl)-4-fluoropyrrolidin-3-yl]-2-methylbenzamide]	0.0016
Cc1ccc(-c2cc(C(F)(F)F)c3c(N)ncnn23)cc1C(=O)N[C@@H]1CN(C(=O)CC(C)C)C[C@@H]1F [Example 991, 5-[4-amino-5-(trifluoromethyl)pyrrolo[2,1-f][1,2,4]triazin-7-yl]-N-[(3R,5S)-4-fluoro-1-(3-methylbutanoyl)pyrrolidin-3-yl]-2-methylbenzamide]	0.0014
Cc1ccc(-c2cc(C(F)(F)F)c3c(N)ncnn23)cc1C(=O)N[C@@H]1CN(C(=O)CC(C)C(F)(F)F)C[C@@H]1F (stereo partly drawn) [Example 992, 5-[4-amino-5-(trifluoromethyl)pyrrolo[2,1-f][1,2,4]triazin-7-yl]-N-[(3R,4S)-4-fluoro-1-(4,4,4-trifluoro-3-methylbutanoyl)pyrrolidin-3-yl]-2-methylbenzamide]	0.002
Cc1ccc(-c2cc(C(F)(F)F)c3c(N)ncnn23)cc1C(=O)N[C@@H]1CN(C(=O)[C@@](C)(O)C(F)(F)F)C[C@@H]1F [Example 993, 5-[4-amino-5-(trifluoromethyl)pyrrolo[2,1-f][1,2,4]triazin-7-yl]-N-[(3R,4S)-4-fluoro-1-[(2R)-3,3,3-trifluoro-2-hydroxy-2-methylpropanoyl]pyrrolidin-3-yl]-2-methylbenzamide]	0.0014
